Publication PMC4336329 (PLoS ONE, 2015)
In all, about 310,000 compounds went through this assay and about 2,200 (0.71%) showed an effect of 50% or more. The effect is printed as a negative number. The list shows a part of the results.

Target: human ether-à-go-go-related gene (hERG) potassium channel (human, UniProt Q12809)
Assay: primary screen, population patch clamp on CHO cells stably expressing hERG

human ether-à-go-go-related gene (hERG) potassium channel, sequence (Q12809 whole entry, looked up): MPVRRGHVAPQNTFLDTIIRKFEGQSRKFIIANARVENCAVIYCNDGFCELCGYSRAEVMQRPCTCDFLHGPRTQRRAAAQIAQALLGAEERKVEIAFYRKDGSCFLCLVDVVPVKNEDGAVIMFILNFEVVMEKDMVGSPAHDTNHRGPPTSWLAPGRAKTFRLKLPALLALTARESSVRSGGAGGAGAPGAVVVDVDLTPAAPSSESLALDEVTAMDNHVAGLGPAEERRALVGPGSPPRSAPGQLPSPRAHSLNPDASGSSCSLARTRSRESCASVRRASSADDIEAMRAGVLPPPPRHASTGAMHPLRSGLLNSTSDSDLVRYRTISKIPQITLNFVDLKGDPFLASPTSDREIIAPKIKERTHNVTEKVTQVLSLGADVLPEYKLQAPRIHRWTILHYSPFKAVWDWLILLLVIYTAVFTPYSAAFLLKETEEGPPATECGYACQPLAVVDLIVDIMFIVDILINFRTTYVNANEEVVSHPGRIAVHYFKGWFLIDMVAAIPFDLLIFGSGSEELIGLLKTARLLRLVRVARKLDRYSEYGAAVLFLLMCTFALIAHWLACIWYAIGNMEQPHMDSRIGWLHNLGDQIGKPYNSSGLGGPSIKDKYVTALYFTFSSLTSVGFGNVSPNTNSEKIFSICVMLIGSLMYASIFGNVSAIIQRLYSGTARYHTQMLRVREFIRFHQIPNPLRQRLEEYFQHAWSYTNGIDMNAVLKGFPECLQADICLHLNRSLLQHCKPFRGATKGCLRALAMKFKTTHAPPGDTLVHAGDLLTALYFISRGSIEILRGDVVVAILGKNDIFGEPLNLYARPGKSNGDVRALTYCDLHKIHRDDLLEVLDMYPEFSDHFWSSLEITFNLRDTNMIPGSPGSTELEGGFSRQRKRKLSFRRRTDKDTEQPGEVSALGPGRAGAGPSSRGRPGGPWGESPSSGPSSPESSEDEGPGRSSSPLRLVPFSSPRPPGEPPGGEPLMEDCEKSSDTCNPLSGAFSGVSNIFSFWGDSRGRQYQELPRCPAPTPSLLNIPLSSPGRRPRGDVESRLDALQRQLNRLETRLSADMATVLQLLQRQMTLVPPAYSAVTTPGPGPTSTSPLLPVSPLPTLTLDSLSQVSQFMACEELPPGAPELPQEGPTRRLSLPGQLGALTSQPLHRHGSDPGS

| Structure (SMILES) | hERG current change (%, negative = inhibition) at 1uM |
| --- | --- |
| COC(=O)c1ccc(C(=O)OC)c(NC(=S)N2CCC(C)CC2)c1 | 6.75% |
| CCCNC(=O)C1CCC(CNS(=O)(=O)c2ccc3c(c2)CC(C)N3C(C)=O)CC1 (stereo not shown) | 18.8% |
| Cc1cccc(NC(=O)CCCCCN2C(=O)[C@@H]3Cc4ccccc4CN3C2=O)c1 | 9.09% |
| CCn1nc(C)c(NS(=O)(=O)c2ccc(C)cc2)c1C | 8.84% |
| O=C(Cc1ccc(F)cc1)Nc1c(C(=O)N2CCN(c3ncccn3)CC2)oc2ccccc12 | -8.61% |
| COC(=O)c1ccc(SC)cn1 | 12.3% |
| Clc1ccc2c(NCc3ccccn3)ncnc2c1 | 5.65% |
| C1COC(NC(C2CC2)C2CC2)=N1.O=C(O)/C=C/C(=O)O | 16.7% |
| Clc1ccc(N/N=C/c2cccnc2)cc1 | 4.53% |
| COc1ccc(C(=O)O)cc1S(=O)(=O)Nc1ccc(C)cc1 | 13.2% |
| COC1=CC(=Cc2c(N)n3nc(CC(=O)N4CCCCC4)sc3nc2=O)C=C(OC)C1=O | 10.6% |
| COc1ccc(C(CNC(=O)Cc2ccc(-c3ccccc3)cc2)N(C)C)cc1 (stereo not shown) | 10.2% |
| Cc1ccc(-n2c(=O)c3sccc3n(CC(=O)NC3CCCC3)c2=O)cc1 | 3.5% |
| CCc1ccccc1NC(=O)CSc1nc(-c2ccccc2)nn1C(=O)c1cccc([N+](=O)[O-])c1 | 9.27% |
| CCc1cccc(NC(=O)CCS(=O)(=O)c2cc3c(cc2C)NC(=O)CO3)c1 | -1.32% |
| CCCCC(=O)Nc1sc(C(=O)N(CC)CC)c(C)c1C(=O)OC | 6.48% |
| O=C(NCc1ccccc1)C1=C[C@@H](C2CCCCC2)C[C@@H](OCCCCO)O1 | 12% |
| CCOc1ccc(-c2ccc(C=O)o2)c([N+](=O)[O-])c1 | 7.63% |
| CCC1(c2ccccc2)ON(c2c(Br)cccc2Br)C1=O (stereo not shown) | 17.3% |
| Cc1nc(C)c(C(=O)Nc2ncc([N+](=O)[O-])s2)o1 | 15.5% |
| CCN(C(=O)COC(=O)/C(=C/c1ccccc1)n1nnnc1C)C1CCCCC1 | 13.5% |
| Cc1ccc(CN2C(=O)CCSc3ccc(Cl)cc32)cc1 | 7.89% |
| Cn1c(N2CCN(C(=O)Nc3ccc(F)cc3)CC2)nc2ccccc21 | -21.9% |

| Structure (SMILES) | hERG current change (%, negative = inhibition) at 1uM |
| --- | --- |
| CCCc1[nH]n(-c2nc3ccccc3s2)c(=O)c1C=NCC(C)C | 6.14% |
| COc1ccc(C(=O)NCc2ccc3[nH]c(C)cc3c2)cc1OC | 0.152% |
| CN1C(=O)CSC1=Nc1ccc(F)cc1 | 17.6% |
| O=C1COc2ccc(S(=O)(=O)N3CCc4ccccc43)cc2N1 | -7.51% |
| O=C(NCCCO)C(=O)NCc1ccncc1 | 16.2% |
| CCn1c(C)nc2cc(C(=O)N/N=C/c3cccc(OC)c3O)ccc21 | 15.2% |
| O=C(C1=C(O)C(=O)N(Cc2ccccc2)C1c1ccco1)c1ccco1 (stereo not shown) | 24% |
| c1ccc(-c2cc3c(ccc4nonc43)nn2)cc1 | 13.6% |
| CN1/C(=C\C(=O)c2ccco2)C(C)(C)c2ccccc21 | 4.59% |
| CCOc1ncccc1C(=O)Nc1cccc(S(=O)(=O)NC2=NCCC2)c1 | 6.75% |
| Cc1ccc(S(=O)(=O)c2ccc([N+](=O)[O-])cn2)cc1 | 10% |
| Cc1ccccc1NC(=O)CN1C(=O)S/C(=C\c2ccc(-c3cccc(C(=O)O)c3C)o2)C1=O | 18.2% |
| CCCC(C(=O)NC(C)(C)C)N(Cc1ccccc1Cl)C(=O)c1snc(C(N)=O)c1N (stereo not shown) | 10.8% |
| COc1cccc(NC(=O)CCSc2nnc3scc(-c4ccccc4)n23)c1 | 6.91% |
| COc1cccc(NC(=O)CSc2nc(=O)n(CCN(C)C)c3c2CCCC3)c1 | -12.6% |
| C=CCC1(C(=O)NCCO)CCN(C(=O)OC(C)(C)C)CC1 | 3.42% |
| Cc1cc(C)nc(NS(=O)(=O)c2ccc(NC(=O)c3cc4c(=O)n5cccc(C)c5nc4n3C)cc2)n1 | 14.3% |
| CC(C)=CC(=O)OCC(=O)Nc1cc([N+](=O)[O-])ccc1F | 10.5% |
| CCn1c(C(=O)N2CCC(C(=O)NCCCSC3CCCCC3)CC2)cc2sccc21 | -2.74% |
| O=C(N=Nc1c(O)[nH]c2ccccc12)c1cccc(S(=O)(=O)Nc2ccccc2Cl)c1 | 0.81% |
| CCOC(=O)c1c(-c2ccccc2)oc2cc(Br)c(O)cc12 | 3.57% |
| CN(C)CCC(O)(c1ccccc1)c1ccccc1.Cl | -9.15% |
| C=CCNC(=O)c1cnc2n(c1=O)CCS2 | 12.2% |

| Structure (SMILES) | hERG current change (%, negative = inhibition) at 1uM |
| --- | --- |
| COc1cccc(/C=N/NC(=O)N/N=C/c2cccc(OC)c2O)c1O | 15.7% |
| COc1ccc(CCNC(=O)Nc2cc(F)c(F)cc2Cl)cc1OC | 23.3% |
| CCOc1ccc(C(=O)NCCc2ccccc2)cc1 | 14.2% |
| CCOP(=O)(OCC)C(Nc1ccc(OC)cc1)c1ccco1 (stereo not shown) | -2.96% |
| CCCCNC(=S)N(C)/N=C/c1ccc(OCC(=O)Nc2ccc(OC)cc2)c(OC)c1 | 3.26% |
| O=C(COc1ccccc1)NC1CCSC1=O (stereo not shown) | -42% |
| NS(=O)(=O)c1ccc(CCNC(=O)C2CCN(S(=O)(=O)c3cnc[nH]3)CC2)cc1 | -3.52% |
| CC(C)OP(=O)(OC(C)C)C(Nc1ccccn1)c1ccc(F)cc1 (stereo not shown) | 17.4% |
| CNC(=O)N1c2ccccc2CCc2ccccc21 | 15.3% |
| CCCC(=O)Nc1ccc(N2CCN(C(=O)c3cc4ccccc4o3)CC2)cc1 | 3.54% |
| Cc1cc(N/N=C/c2ccc3c(c2)OCO3)nc2ccccc12 | 13.8% |
| Cc1ccc(C(=O)NNC(=O)CCC(=O)Nc2cc(C)on2)cc1 | 11.8% |
| O=C(COc1coc(CN2CCCc3ccccc32)cc1=O)Nc1cccc([N+](=O)[O-])c1 | -14.1% |
| CCOC(=O)c1c(CN(C)C)n(C)c2c(O)c(N=NC(N)=O)c3ccc(Br)cc3c12.Cl | 7.1% |
| Cn1c(=O)c2c(nc(SCC(=O)c3ccccc3F)n2C)n(C)c1=O | 6.42% |
| COc1ccc(-c2cc3cccc(OC)c3oc2=O)cc1 | 14.6% |
| Cc1ccccc1NC(=O)OCc1ccccc1 | 9.41% |
| O=C(NC1CCCc2ccccc21)c1cccnc1 (stereo not shown) | 7.88% |
| C=CCc1cc(Cl)ccc1OCCN1CC(C)OC(C)C1.O=C(O)C(=O)O (stereo not shown) | -11.1% |
| COc1ccc(-c2cc(=O)oc3c(C)c(OCC(=O)N(C)C)ccc23)cc1 | 6.74% |
| COc1ccccc1-n1nnnc1SCC(=O)NCC1CCCO1 (stereo not shown) | 12% |
| CCC(=O)NC(=S)Nc1ccc(-c2nc3ccccc3s2)cc1 | -2.83% |
| O=C1OCCC1NC1=NCCC1 (stereo not shown) | 2.69% |

| Structure (SMILES) | hERG current change (%, negative = inhibition) at 1uM |
| --- | --- |
| Cc1noc(C)c1S(=O)(=O)N1CCC(C(=O)NCCc2ccc(S(N)(=O)=O)cc2)CC1 | 13.1% |
| Nc1nncn1C(=O)CCCOc1ccc(Cl)cc1Cl | 5.93% |
| Cc1ccc(Nc2nnc(SCC(=O)c3cc4ccccc4o3)s2)cc1C | 8.59% |
| COc1ccc(C(=O)c2ccccc2)c2c(O)ccc(C(=O)c3ccccc3)c12 | 16.5% |
| CC(=O)CCc1oc2ccc(C)cc2c1Cc1ccccc1 | 11.8% |
| O=C(NO)c1ccc(OC(F)F)cc1 | 2.03% |
| COCC(=O)NC1CC(C)(C)Cc2c1cnn2-c1ccc(F)cc1 (stereo not shown) | -16.7% |
| Cc1cc2ccccc2n2c(SCC(=O)NCC3CCCO3)nnc12 (stereo not shown) | 5.94% |
| Clc1ccccc1/C=N/NC1=Nc2cccc3cccc1c23 | 23.9% |
| Cc1ccsc1/C=N/Nc1nc(=O)[nH]nc1C | 10.1% |
| Cc1cccn2c(=O)c(C=Nc3ccccc3)c(NCc3ccco3)nc12 | 9.3% |
| Cc1cc(OCC(=O)NCC2CCC(C(=O)O)CC2)c2c(C)c(C)c(=O)oc2c1 (stereo not shown) | 14.6% |
| COc1ccc(NC(=O)CN2C(=O)NC(C)(C3CC3)C2=O)cc1S(=O)(=O)N1CCCCC1 (stereo not shown) | 8% |
| O=C(O)c1ccn(COc2ccc(Br)cc2)n1 | 17.7% |
| COc1ccc(C(=O)N2CCN(S(=O)(=O)N3CCOCC3)CC2)cc1OC | 13.1% |
| O=C(CCOc1ccc(F)cc1)Nc1nccs1 | 7.16% |
| Cc1c(Cl)cccc1N=Cc1ccc([N+](=O)[O-])s1 | 9.36% |
| Cc1ccc(NC(=O)CN(C)CC(=O)Nc2c(C)cccc2C)c(Br)c1 | 9.54% |
| COc1cccc(CNS(=O)(=O)c2ccc3c(c2)NC(=O)CS3)c1 | 3.55% |
| COc1ccc(S(=O)(=O)NCCc2nnc3ccc(SCc4cccnc4)nn23)cc1 | 4.46% |
| CCOC(=O)c1[nH]c(C)c(C(=O)OCC(=O)N2c3ccccc3CC2C)c1C (stereo not shown) | -1.32% |
| C=CCC1=C/C(=C\c2c(N)n3nc(CC(=O)N4CCCC4)sc3nc2=O)C=C(OC)C1=O | 14% |
